These results are taken from publication PMC3795639.

Sequences of proteins named here, by UniProt entry; tags and fusion partners are left off.
UniProt Q15797: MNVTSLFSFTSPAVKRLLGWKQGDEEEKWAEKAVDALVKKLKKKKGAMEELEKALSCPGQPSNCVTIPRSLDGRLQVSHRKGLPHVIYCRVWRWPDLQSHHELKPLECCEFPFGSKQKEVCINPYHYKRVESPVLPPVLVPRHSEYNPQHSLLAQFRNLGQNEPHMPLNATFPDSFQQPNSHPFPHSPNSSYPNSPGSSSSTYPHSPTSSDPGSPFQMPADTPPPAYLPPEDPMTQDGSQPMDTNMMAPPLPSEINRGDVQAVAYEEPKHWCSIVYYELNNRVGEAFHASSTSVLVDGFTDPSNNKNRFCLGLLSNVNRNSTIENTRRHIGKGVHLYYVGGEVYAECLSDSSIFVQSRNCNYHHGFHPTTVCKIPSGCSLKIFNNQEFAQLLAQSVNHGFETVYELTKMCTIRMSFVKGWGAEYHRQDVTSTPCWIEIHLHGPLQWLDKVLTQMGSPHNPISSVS
UniProt P84022: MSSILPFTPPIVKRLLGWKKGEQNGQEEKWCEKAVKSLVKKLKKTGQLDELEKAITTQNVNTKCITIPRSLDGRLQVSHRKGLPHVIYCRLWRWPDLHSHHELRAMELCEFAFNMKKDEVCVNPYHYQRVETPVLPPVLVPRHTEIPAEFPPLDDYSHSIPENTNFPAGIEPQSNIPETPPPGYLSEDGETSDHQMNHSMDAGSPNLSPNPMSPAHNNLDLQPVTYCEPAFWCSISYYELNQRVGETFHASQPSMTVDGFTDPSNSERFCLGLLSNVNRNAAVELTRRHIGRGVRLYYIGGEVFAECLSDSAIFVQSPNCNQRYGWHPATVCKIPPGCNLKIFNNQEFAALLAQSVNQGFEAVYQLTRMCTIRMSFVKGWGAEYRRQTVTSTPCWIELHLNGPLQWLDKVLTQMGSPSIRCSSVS
UniProt Q99717: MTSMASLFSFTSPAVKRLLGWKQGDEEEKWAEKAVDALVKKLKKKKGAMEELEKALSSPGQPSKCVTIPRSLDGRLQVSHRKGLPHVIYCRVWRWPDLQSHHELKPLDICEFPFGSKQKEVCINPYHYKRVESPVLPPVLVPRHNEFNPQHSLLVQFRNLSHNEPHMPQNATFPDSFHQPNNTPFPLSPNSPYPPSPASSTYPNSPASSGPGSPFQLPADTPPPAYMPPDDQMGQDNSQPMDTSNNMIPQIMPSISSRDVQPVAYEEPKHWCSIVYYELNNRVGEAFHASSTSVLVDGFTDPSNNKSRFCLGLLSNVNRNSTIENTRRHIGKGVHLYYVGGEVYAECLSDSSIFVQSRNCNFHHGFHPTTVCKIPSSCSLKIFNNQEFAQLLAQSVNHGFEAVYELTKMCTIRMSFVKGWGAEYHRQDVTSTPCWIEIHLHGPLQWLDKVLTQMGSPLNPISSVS

These are yes or no findings as the source states them, for the method shown. Binding seen in cells or lysates may run through a third protein. Some results given as binding are weak or reduced against the parent protein; the word gives no strength. Tags and fused reporters may be left off the sequences shown.

The target in one assay is Flag-tagged Smad1 (UniProt Q15797). Put plainly: co-IP; extracts of transfected HEK293T cells stimulated 24 h after transfection with rhTGFβ1 (5 ng/ml) or rhBMP4 (25 ng/ml) for 1.5 h; lysis buffer 170 mM NaCl, 10 mM EDTA, 50 mM Tris-HCl pH7.4, 0.5% NP-40; 500 µg of protein incubated overnight with protein G magnetic beads bound to anti-HA or anti-FLAG antibody; Western blot. For orientation: A western blot detects proteins with antibodies after separation by electrophoresis.

For assay [1], the target named is Flag-tagged Smad3 (UniProt P84022). The assay is described as above.
Assay [2] shares this target. Briefly: co-IP; as a1, but extracts of transfected HEK293T cells that were not stimulated with ligand.
The next assay addresses Flag-tagged Smad5 (UniProt Q99717). Briefly: co-IP; extracts of transfected HEK293T cells stimulated 24 h after transfection with rhTGFβ1 (5 ng/ml) or rhBMP4 (25 ng/ml) for 1.5 h; lysis buffer 170 mM NaCl, 10 mM EDTA, 50 mM Tris-HCl pH7.4, 0.5% NP-40; 500 µg of protein incubated overnight with protein G magnetic beads bound to anti-HA or anti-FLAG antibody; Western blot.

B1: full-length, wild-type (WT) Myc-tagged Sip1 (protein, UniProt Q9R0G7 1-1215)
chain: MKQPIMADGPRCKRRKQANPRRKNVVNYDNVVDAGSETDEEDKLHIAEDDSLANPLDQDTSPASMPNHESSPHMSQGLLPREEEEEELRESVVEHSWHSGEILQASVAGPEEMKEDYDAMGPEATIQTTINNGTVKNANCTSDFEEYFAKRKLEERDGHAVSIEEYLQRSDTAIIYPEAPEELSRLGTPEANGQEENDLPPGTPDAFAQLLTCPYCDRGYKRLTSLKEHIKYRHEKNEENFSCPLCSYTFAYRTQLERHMVTHKPGTDQHQMLTQGAGNRKFKCTECGKAFKYKHHLKEHLRIHSGEKPYECPNCKKRFSHSGSYSSHISSKKCIGLISVNGRMRNNIKTGSSPNSVSSSPTNSAITQLRNKLENGKPLSMSEQTGLLKIKTEPLDFNDYKVLMATHGFSGSSPFMNGGLGATSPLGVHPSAQSPMQHLGVGMEAPLLGFPTMNSNLSEVQKVLQIVDNTVSRQKMDCKTEDISKLKGYHMKDPCSQPEEQGVTSPNIPPVGLPVVSHNGATKSIIDYTLEKVNEAKACLQSLTTDSRRQISNIKKEKLRTLIDLVTDDKMIENHSISTPFSCQFCKESFPGPIPLHQHERYLCKMNEEIKAVLQPHENIVPNKAGVFVDNKALLLSSVLSEKGLTSPINPYKDHMSVLKAYYAMNMEPNSDELLKISIAVGLPQEFVKEWFEQRKVYQYSNSRSPSLERTSKPLAPNSNPTTKDSLLPRSPVKPMDSITSPSIAELHNSVTSCDPPLRLTKSSHFTNIKAVDKLDHSRSNTPSPLNLSSTSSKNSHSSSYTPNSFSSEELQAEPLDLSLPKQMREPKGIIATKNKTKATSINLDHNSVSSSSENSDEPLNLTFIKKEFSNSNNLDNKSNNPVFGMNPFSAKPLYTPLPPQSAFPPATFMPPVQTSIPGLRPYPGLDQMSFLPHMAYTYPTGAATFADMQQRRKYQRKQGFQGDLLDGAQDYMSGLDDMTDSDSCLSRKKIKKTESGMYACDLCDKTFQKSSSLLRHKYEHTGKRPHQCQICKKAFKHKHHLIEHSRLHSGEKPYQCDKCGKRFSHSGSYSQHMNHRYSYCKREAEEREAAEREAREKGHLEPTELLMNRAYLQSITPQGYSDSEERESMPRDGESEKEHEKEGEEGYGKLRRRDGDEEEEEEEEESENKSMDTDPETIRDEEETGDHSMDDSSEDGKMETKSDHEEDNMEDGME
For the molecule B1, the binding result with Flag-tagged Smad1 and with Flag-tagged Smad3 [1] was “binds” each time.

B2: full-length Sip1(AxAx)2 mutant (protein, UniProt Q9R0G7 1-1215)
chain: MKQPIMADGPRCKRRKQANPRRKNVVNYDNVVDAGSETDEEDKLHIAEDDSLANPLDQDTSPASMPNHESSPHMSQGLLPREEEEEELRESVVEHSWHSGEILQASVAGPEEMKEDYDAMGPEATIQTTINNGTVKNANCTSDFEEYFAKRKLEERDGHAVSIEEYLQRSDTAIIYPEAPEELSRLGTPEANGQEENDLPPGTPDAFAQLLTCPYCDRGYKRLTSLKEHIKYRHEKNEENFSCPLCSYTFAYRTQLERHMVTHKPGTDQHQMLTQGAGNRKFKCTECGKAFKYKHHLKEHLRIHSGEKPYECPNCKKRFSHSGSYSSHISSKKCIGLISVNGRMRNNIKTGSSPNSVSSSPTNSAITQLRNKLENGKPLSMSEQTGLLKIKTEPLDFNDYKVLMATHGFSGSSPFMNGGLGATSPLGVHPSAQSPMQHLGVGMEAPLLGFPTMNSNLSEVAKALAIADNTVSRQKMDCKTEDISKLKGYHMKDPCSQPEEQGVTSPNIPPVGLPVVSHNGATKSIIDYTLEKVNEAKACLQSLTTDSRRQISNIKKEKLRTLIDLVTDDKMIENHSISTPFSCQFCKESFPGPIPLHQHERYLCKMNEEIKAVLQPHENIVPNKAGVFVDNKALLLSSVLSEKGLTSPINPYKDHMSVLKAYYAMNMEPNSDELLKISIAVGLPQEFVKEWFEQRKVYQYSNSRSPSLERTSKPLAPNSNPTTKDSLLPRSPVKPMDSITSPSIAELHNSVTSCDPPLRLTKSSHFTNIKAVDKLDHSRSNTPSPLNLSSTSSKNSHSSSYTPNSFSSEELQAEPLDLSLPKQMREPKGIIATKNKTKATSINLDHNSVSSSSENSDEPLNLTFIKKEFSNSNNLDNKSNNPVFGMNPFSAKPLYTPLPPQSAFPPATFMPPVQTSIPGLRPYPGLDQMSFLPHMAYTYPTGAATFADMQQRRKYQRKQGFQGDLLDGAQDYMSGLDDMTDSDSCLSRKKIKKTESGMYACDLCDKTFQKSSSLLRHKYEHTGKRPHQCQICKKAFKHKHHLIEHSRLHSGEKPYQCDKCGKRFSHSGSYSQHMNHRYSYCKREAEEREAAEREAREKGHLEPTELLMNRAYLQSITPQGYSDSEERESMPRDGESEKEHEKEGEEGYGKLRRRDGDEEEEEEEEESENKSMDTDPETIRDEEETGDHSMDDSSEDGKMETKSDHEEDNMEDGME
For the molecule B2, the binding entry with Flag-tagged Smad1 and with Flag-tagged Smad3 [1] was “no binding” in each case.

B3: peptide aptamer A1 (entire 51 aa-long Sip1 SBD inserted in HA-tagged Trx) (domain or fragment, UniProt Q9R0G7 437-487)
chain: QHLGVGMEAPLLGFPTMNSNLSEVQKVLQIVDNTVSRQKMDCKTEDISKLK
In the case of B3, the binding entry is reported as “no binding (condition: cells not stimulated with TGFβ1)” in the assay with Flag-tagged Smad3 [2], “binds” with Flag-tagged Smad1, “binds” in the assay with Flag-tagged Smad3 [1] and “binds” in the assay with Flag-tagged Smad5.
On to EVQKVLQIVDNTVS (domain or fragment, UniProt Q9R0G7 459-472) [peptide aptamer A6 (Sip1 aa459-472 inserted in HA-tagged Trx)], for which the binding result with Flag-tagged Smad1 and with Flag-tagged Smad3 [1] was “binds” throughout.
